Source: publication PMC3275592, “Structural and Functional Insights into Endoglin Ligand Recognition and Binding” (PLoS ONE, 2012)
Blank lines part the entries; values can stand above or below the binder they belong to.

What was measured:
Settings in all cases: both partners purified
[1] = molecular target: T1, Bone morphogenetic protein 9 (BMP-9) (human, UniProt Q9UK05 320-429); assay: SPR; Biacore T100; BMP-9 immobilised on CM5 chip by amine coupling; analyte alone at six concentrations 12.5-400 nM; 25°C; 10 mM HEPES pH 7.4, 150 mM NaCl, 3 mM EDTA, 0.05% P20; 1:1 binding model, global fit; apparent KD; triplicates
T1 construct: BMP-9, human, carrier-free protein from R&D Systems; Immobilised on a CM5 chip by amine coupling; also called Bone Morphogenetic Protein (BMP)-9; source: bought: R&D Systems (carrier free)
T1 sequence (looked up): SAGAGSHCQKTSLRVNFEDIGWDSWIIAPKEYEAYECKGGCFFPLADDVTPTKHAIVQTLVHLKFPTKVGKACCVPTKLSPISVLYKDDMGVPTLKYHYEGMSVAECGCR

[2] = molecular target: T2, HG-EndoEC, full length extracellular region of human endoglin (residues 22-587), high glycosylation (human, UniProt P17813 22-587, mature, branched sugars (high glycosylation); putative Asn glycosylation sites Asn88, Asn102, Asn121, Asn134 and Asn307 (Asn306 in Figure 1)); assay: SPR; Biacore T100; capture experiment: first analyte injected at 750 nM for 60 s over immobilised BMP-9 to saturate it, then the second analyte at different concentrations; 25°C; 10 mM HEPES pH 7.4, 150 mM NaCl, 3 mM EDTA, 0.05% P20; 1:1 binding model
T2 construct: endoglin, human, extracellular region, residues 22-587; EndoEC dimerized to some extent through a disulfide bond; also called endoglin ectodomain; source: HEK293 FreeStyle (HEK293F), transfected, secreted, purified (HisTrap, gel filtration)
T2 sequence (looked up): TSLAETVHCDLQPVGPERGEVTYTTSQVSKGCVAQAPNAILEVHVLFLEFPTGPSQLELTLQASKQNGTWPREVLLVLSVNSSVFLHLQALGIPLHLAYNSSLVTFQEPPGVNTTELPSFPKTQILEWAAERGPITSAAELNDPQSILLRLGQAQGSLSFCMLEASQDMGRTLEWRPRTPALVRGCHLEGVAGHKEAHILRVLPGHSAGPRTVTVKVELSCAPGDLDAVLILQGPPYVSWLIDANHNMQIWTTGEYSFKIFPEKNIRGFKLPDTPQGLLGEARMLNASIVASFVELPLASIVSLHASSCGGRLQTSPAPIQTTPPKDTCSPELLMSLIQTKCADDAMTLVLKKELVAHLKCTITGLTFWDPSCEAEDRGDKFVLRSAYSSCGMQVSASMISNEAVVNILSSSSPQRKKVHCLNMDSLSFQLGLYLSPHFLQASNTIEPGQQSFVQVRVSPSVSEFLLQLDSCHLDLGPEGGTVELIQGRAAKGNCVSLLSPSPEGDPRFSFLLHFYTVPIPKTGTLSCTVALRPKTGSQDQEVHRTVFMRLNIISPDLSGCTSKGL

[3] = molecular target: T3, LG-EndoEC, full length extracellular region of human endoglin (residues 22-587), low glycosylation (human, UniProt P17813 22-587, short, well defined sugars of the type Man5NAG2 (low glycosylation); putative Asn glycosylation sites Asn88, Asn102, Asn121, Asn134 and Asn307 (Asn306 in Figure 1)); assay: as above
T3 construct: endoglin, human, extracellular region, residues 22-587; Dimeric and monomeric species seen on gels; also called endoglin ectodomain; source: HEK293S GnTI- suspension cells, transfected, secreted, purified (HisTrap, gel filtration); not shown: 6xHis, C-terminal, kept
T3 sequence (looked up): T2 sequence (looked up)

[4] = molecular target: T4, Endo338, endoglin orphan domain construct (residues 22-337) (human, UniProt P17813 22-337, Man5NAG2 glycans (5 modelled at their attachment sites)); assay: as above
T4 construct: also called Endoglin338; OD; source: HEK293S GnTI- suspension cells, transfected, secreted, purified (HisTrap, gel filtration); not shown: 6xHis, C-terminal, kept
T4 sequence (looked up): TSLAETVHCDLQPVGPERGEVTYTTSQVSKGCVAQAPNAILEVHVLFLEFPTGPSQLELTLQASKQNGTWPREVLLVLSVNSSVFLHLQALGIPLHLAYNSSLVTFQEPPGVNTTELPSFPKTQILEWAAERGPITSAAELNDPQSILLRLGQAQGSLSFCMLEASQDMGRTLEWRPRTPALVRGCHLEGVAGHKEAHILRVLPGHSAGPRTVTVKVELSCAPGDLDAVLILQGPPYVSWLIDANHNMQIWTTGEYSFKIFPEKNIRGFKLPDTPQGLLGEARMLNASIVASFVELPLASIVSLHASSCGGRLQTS

[5] = molecular target: T5, BMP-9 immobilised on the chip and saturated with captured HG-EndoEC (human, UniProt Q9UK05 320-429; P17813 22-587, mature, branched sugars (high glycosylation)); assay: as above
T5 construct: BMP-9, human, carrier-free protein from R&D Systems; as m1; endoglin, human, extracellular region, residues 22-587; as m2; Non-covalent complex formed by the capture step of the SPR run; also called captured ligand HG-EndoEC on BMP-9; source: formed on the sensor chip: HG-EndoEC injected at 750 nM over amine-coupled BMP-9 (R&D Systems)
T5 sequence (looked up) 1: T1 sequence (looked up)
T5 sequence (looked up) 2: T2 sequence (looked up)

- Kd [1]: 18.9 nM
- koff [1]: 0.00403 s⁻¹
- kon [1]: 213000 M⁻¹ s⁻¹
B1: LG-ALK1EC, ALK1 ectodomain ([…]), low glycosylation (domain or fragment)
chain: not shown
modifications: low glycosylation (HEK293S GnTI-); theoretical N-glycosylation site at Asn98
notes: ALK1 (activin receptor-like kinase 1), human, predicted complete ectodomain, […]; source: HEK293S GnTI- cells, transfected, secreted, purified (HisTrap, Superdex 75)

- Kd [2]: 15 nM
- koff [2]: 0.0109 s⁻¹
- kon [2]: 711000 M⁻¹ s⁻¹
- Kd [3]: 2.62 nM
- koff [3]: 0.000913 s⁻¹
- kon [3]: 349000 M⁻¹ s⁻¹
- Kd [4]: 155 nM
- koff [4]: 0.192 s⁻¹
- kon [4]: 1.22e+06 M⁻¹ s⁻¹
B2: BMP-9 immobilised on the chip and saturated with captured HG-ALK1EC (complex)
chain 1: T1 sequence (looked up)
chain 2: [letters of about 100 residues omitted]
modifications: mature glycosylation; theoretical N-glycosylation site at Asn98
notes: BMP-9, human, carrier-free protein from R&D Systems; as m1; ALK1, human, ectodomain, […]; as m4; Non-covalent complex formed by the capture step of the SPR run; also called complex ALK1 - BMP-9; captured ligand HG-ALK1EC on BMP-9; source: formed on the sensor chip: HG-ALK1EC injected at 750 nM over amine-coupled BMP-9 (R&D Systems)

- Kd [1]: 46.4 nM
- koff [1]: 0.0056 s⁻¹
- kon [1]: 121000 M⁻¹ s⁻¹
- Kd [5]: 59.3 nM
- koff [5]: 0.00772 s⁻¹
- kon [5]: 130000 M⁻¹ s⁻¹
B3: HG-ALK1EC, ALK1 ectodomain ([…]), high glycosylation (domain or fragment)
chain: not shown
modifications: mature glycosylation; theoretical N-glycosylation site at Asn98
notes: ALK1 (activin receptor-like kinase 1), human, predicted complete ectodomain, […]; also called activin receptor-like kinase (ALK)1 ectodomain; source: HEK293 FreeStyle (HEK293F), transfected, secreted, purified (HisTrap, Superdex 75)
